Measured values as given in PubChem BioAssay AID651820 (National Center for Advancing Translational Sciences (NCATS), 2012).
Among all 340,000 compounds or so, about 12,000 (3.5%) were called active. The shares of active, inactive and inconclusive entries below differ from those in the screen. Calls come from the whole dose curve; as a rule, active = well fitted inhibition curve with a large enough effect; inconclusive = small, poorly fitted or top-dose-only effect, or another doubt; inactive = no such curve, though single readings can be large or run the other way. No potency is given beside an inconclusive call; the fits are too rough.

assay: qHTS Assay for Inhibitors of Hepatitis C Virus (HCV); settings: Huh7.5.1 HCVcc-Cre (HCVcc is cell-culture hepatitis C virus) infection, luciferase reporter, 44 h; activity change, negative = inhibition: at 41.8 µM (top of the series) unless noted
How it was run: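 Cells (1,000/well) were plated 4 h before compound, then infected with HCVcc-Cre virus (~0.5 moi). After 44 h further culture, infection was read as luciferase luminescence following a 15 min substrate incubation at room temperature.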
% is set by controls: 0 for no effect and ±100 for the full control effect; potency is the fitted concentration of half-maximal effect; tags give direction and shape of the fitted curve.

Compound	activity change, negative = inhibition	Potency
COC(=O)c1ccc(COC(=O)CCNS(=O)(=O)c2ccc(C)c(C)c2)cc1	inconclusive: -31.4% [inhibitor]	
Cc1cccc(N2CCN(C(=O)c3ccc4nccnc4c3)CC2C)c1 (stereo not given)	inactive: 3%	
Cc1cc(C(=O)Nc2sc3c(c2C#N)CCC3)no1		inconclusive [inhibitor, single point]
CC(=NNC(=S)N1CCC1)c1ccccn1		active: 1.26 µM
COc1ccc(-c2oc3cc(OC(C)=O)cc(OC(C)=O)c3c(=O)c2OC)cc1		inconclusive [inhibitor, partial curve]
CCCCCNC(=O)CCc1ccccc1	inactive: 0.7%	
Cc1cc(OCCCCOc2ccc(C#N)cc2)ccc1[N+](=O)[O-]		active: 8.91 µM
O=C(NC1CCCN(CCc2ccccc2)C1)c1c(F)cccc1F (stereo not given)	inactive: -0.637%	
CN(C)CC(=O)N1c2ccccc2Sc2ccc(Cl)cc21		inconclusive [inhibitor, partial curve]
O=C(CN1CCN(c2ccc(O)cc2)CC1)N(C1CC1)C1CCS(=O)(=O)C1 (stereo not given)	inactive: 13.3%	
CC[n+]1c(/C=C(/C)SC)sc2ccccc21		inconclusive [inhibitor, partial curve]
O=C(Nc1ccc(CN2CCOCC2)cc1)c1ccc(Br)cc1		inconclusive [inhibitor, partial curve]
CCCS(=O)(=O)c1c(S(=O)(=O)CCC)c2c(C)cccn2c1C(=O)OC		inconclusive [inhibitor, partial curve]
CC1(C)CC1C(=O)Nc1ccc([N+](=O)[O-])cc1Br (stereo not given)		inconclusive [inhibitor, full curve]
CCOc1cc(/C=C2\CCC/C(=C\c3cc(Cl)c(O)c(OCC)c3)C2=O)cc(Cl)c1O		inconclusive [inhibitor, single point]
O=C(C[n+]1cc(-c2ccccc2)n2c1CCC2)Nc1nc(-c2ccccc2)cs1		inconclusive [inhibitor, full curve]
O=C(Nc1ccccc1)OCC1CCCN2CCCCC12 (stereo not given)	inactive: 9.47%	
CCOC(=O)c1ccc(CC(=O)c2oc3cc(O)ccc3c2C)o1		inconclusive [inhibitor, partial curve]
CCOC(=O)C1CCN(C(=O)COC(=O)c2ccc(Br)o2)CC1	inactive: -2.8%	
O=C(Nc1ccccc1-c1nnc(SCc2ccc(Cl)cc2Cl)o1)c1ccccc1		inconclusive [inhibitor, full curve]
CCN(CC(=O)Nc1cc(C)nn1-c1nc(C)cc(C)n1)Cc1ccccc1		inconclusive [inhibitor, single point]
O=C(CCc1ccccc1)Nc1ncc([N+](=O)[O-])s1		inconclusive [inhibitor, single point]
Cc1ccc(N/C(CSC(N)=O)=N\S(=O)(=O)c2ccc(C)cc2)cc1	inactive: 12.6%	

Compound	activity change, negative = inhibition	Potency
CCOC(=O)C1=C(C)NC2=C(C(=O)CC(c3ccc(OC)c(OC)c3)C2)C1c1ccc(C)o1 (stereo not given)		active: 12.6 µM
COc1ccc(C(=O)C2CCCN(S(=O)(=O)c3ccc(C(C)=O)cc3)C2)c(C)c1 (stereo not given)		active: 10 µM
C=CCNC(=S)NNC(=O)c1cccn(Cc2ccc(Cl)c(Cl)c2)c1=O		inconclusive [inhibitor, single point]
COC(=O)c1cc(N=Cc2c(O)c3ccccc3oc2=O)cc(C(=O)OC)c1		inconclusive [inhibitor, partial curve, poor fit]
CCN(CC)c1ccc(C=NNc2ccc([N+](=O)[O-])cn2)cc1		inconclusive [inhibitor, partial curve]
COc1ccc(NC(=O)CSc2nc3ccccc3c(=O)n2-c2ccc3c(c2)OCO3)c(OC)c1		inconclusive [inhibitor, single point]
COc1ccc(OCCNC(=O)c2cc(C3CC3)nc3c2cnn3C(C)C)cc1		inconclusive [inhibitor, partial curve]
Cc1cc(SCc2ccc(C(F)(F)F)cc2)nc(=O)[nH]1	inactive: 6.25%	
CC(C)c1nnc(NC(=O)c2c(O)c3cccc4c3n(c2=O)CCC4)s1		inconclusive [inhibitor, single point]
CCOC(=O)N1CCC(N2Cc3cccc(C(=O)Nc4ccc(N(CC)CC)cc4C)c3C2=O)CC1	inactive: -12.5%	
O=C(NCCCn1ccnc1)c1ccc(N2CCCCC2)c([N+](=O)[O-])c1		inconclusive [inhibitor, partial curve, poor fit]
OCCNCCCCCOc1ccc(F)cc1		inconclusive [inhibitor, single point]
COc1ccc(C(=O)/C=C/c2ccc(C)cc2)c(OC(=O)c2ccc([N+](=O)[O-])cc2)c1	inactive: -2.56%	
O=S(=O)(c1ccccc1)[C@@]1(c2ccccc2)C[C@@H]2ON=C(c3cccc(Br)c3)[C@@H]2C1		inconclusive [inhibitor, partial curve, poor fit]
Cc1nn(-c2ccccc2)c(N)c1N=Nc1cccc(S(=O)(=O)N2CCOCC2)c1		active: 22.4 µM
COCCOC(=O)c1[nH]c2c(c1C)C(=O)CC(c1cccs1)C2 (stereo not given)	inactive: -18.6%	
Cc1coc(NC(=O)CSc2nc(-c3ccncc3)cc(C(F)(F)F)c2C#N)n1		inconclusive [inhibitor, single point]
CS(=O)(=O)c1cccc(C(=O)Nc2cccc(S(=O)(=O)N3CCCC3)c2)c1		inconclusive [inhibitor, full curve]
CCOC(=O)C1CCCN(CC(=O)Nc2c(C(=O)OC)[nH]c3ccc(Cl)cc23)C1 (stereo not given)		inconclusive [inhibitor, full curve]
COc1cccc(CN2CC(C(=O)NCCc3ccc(C)s3)CCC2=O)c1 (stereo not given)	inactive: 0.336%	
CCN(CC(=O)Nc1c(F)cccc1F)C(=O)c1cc(-c2cccs2)nn1-c1ccccc1		active: 14.1 µM
COc1cc2c(cc1OC)CN(C(=O)c1ccc(Cl)c(S(=O)(=O)N3CCCC3)c1)CC2		inconclusive [inhibitor, single point]
